Source: IntAct's records for PubMed 21346195

B1: Inner centromere protein (Homo sapiens), Q9NQS7 (parent)
chain: MGTTAPGPIHLLELCDQKLMEFLCNMDNKDLVWLEEIQEEAERMFTREFSKEPELMPKTPSQKNRRKKRRISYVQDENRDPIRRRLSRRKSRSSQLSSRRLRSKDSVEKLATVVGENGSVLRRVTRAAAAAAAATMALAAPSSPTPESPTMLTKKPEDNHTQCQLVPVVEIGISERQNAEQHVTQLMSTEPLPRTLSPTPASATAPTSQGIPTSDEESTPKKSKARILESITVSSLMATPQDPKGQGVGTGRSASKLRIAQVSPGPRDSPAFPDSPWRERVLAPILPDNFSTPTGSRTDSQSVRHSPIAPSSPSPQVLAQKYSLVAKQESVVRRASRRLAKKTAEEPAASGRIICHSYLERLLNVEVPQKVGSEQKEPPEEAEPVAAAEPEVPENNGNNSWPHNDTEIANSTPNPKPAASSPETPSAGQQEAKTDQADGPREPPQSARRKRSYKQAVSELDEEQHLEDEELQPPRSKTPSSPCPASKVVRPLRTFLHTVQRNQMLMTPTSAPRSVMKSFIKRNTPLRMDPKCSFVEKERQRLENLRRKEEAEQLRRQKVEEDKRRRLEEVKLKREERLRKVLQARERVEQMKEEKKKQIEQKFAQIDEKTEKAKEERLAEEKAKKKAAAKKMEEVEARRKQEEEARRLRWLQQEEEERRHQELLQKKKEEEQERLRKAAEAKRLAEQREQERREQERREQERREQERREQERREQERQLAEQERRREQERLQAERELQEREKALRLQKEQLQRELEEKKKKEEQQRLAERQLQEEQEKKAKEAAGASKALNVTVDVQSPACTSYQMTPQGHRAPPKINPDNYGMDLNSDDSTDDEAHPRKPIPTWARGTPLSQAIIHQYYHPPNLLELFGTILPLDLEDIFKKSKPRYHKRTSSAVWNSPPLQGARVPSSLAYSLKKH

Variants of: B1
Settings: with cbx5_human CBX5, P45973
With P167A;V169A;I171A the “effect of a mutation on the interaction” value was “decreasing interaction strength”.
